# Source: the supplement of paper PMC7826260
# The other results are listed elsewhere or left out. Cleavage of a single-stranded DNA pool by Rep nickase domains was read by sequencing (3 µM enzyme, 1 h, 37 °C); shown is the middle of each 90-letter strand. Values are log2 of uncut reads against the no-enzyme pool; the lower, the more was cut; hits are not called. The scaling is to total reads; uncut strands gain when others are lost, and binding without cutting may add a little.
# Legend:
# Test in all cases: uncleaved DNA left, log2 of reads against the no-enzyme library (log2 ratio); higher = less cleavage (more negative = more Rep cleavage of the k-mer); sequences stand for … in CTCGTCCG…ACCGGAGA
# [1] = system: T1, Rep nickase domain of Muscovy duck circovirus
# T1 sequence (residues 1-111 of Rep, tag left off): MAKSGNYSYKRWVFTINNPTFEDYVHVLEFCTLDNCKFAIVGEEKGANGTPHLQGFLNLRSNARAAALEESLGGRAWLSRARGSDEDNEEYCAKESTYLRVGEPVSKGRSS
# Method: (§1)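 A pool of 90-nt single-stranded DNAs with seven random bases just before the constant AC of the nick site (name = the seven bases) was cut by 3 µM recombinant His6-SUMO-tagged Rep nickase domain (300 nM DNA, 50 mM HEPES pH 8.0, 50 mM NaCl, 1 mM MnCl2, 1 h, 37 °C, three replicates). Uncut DNA was amplified and sequenced.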
# [2] = system: T2, Rep nickase domain of banana bunchy top virus
# T2 sequence (residues 1-94 of Rep, tag left off): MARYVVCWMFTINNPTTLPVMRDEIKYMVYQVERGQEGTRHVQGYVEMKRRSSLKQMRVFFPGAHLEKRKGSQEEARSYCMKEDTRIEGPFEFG
# Method: as §1
# [3] = system: T3, Rep nickase domain of cabbage leaf curl virus
# T3 sequence (residues 1-116 of Rep, tag left off): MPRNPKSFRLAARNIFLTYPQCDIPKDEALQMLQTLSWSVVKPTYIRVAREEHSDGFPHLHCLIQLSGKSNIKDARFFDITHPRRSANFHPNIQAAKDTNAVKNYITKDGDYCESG
# Method: as §1
# [4] = system: T4, Rep nickase domain of chickpea chlorotic dwarf virus
# T4 sequence (residues 1-124 of Rep, tag left off): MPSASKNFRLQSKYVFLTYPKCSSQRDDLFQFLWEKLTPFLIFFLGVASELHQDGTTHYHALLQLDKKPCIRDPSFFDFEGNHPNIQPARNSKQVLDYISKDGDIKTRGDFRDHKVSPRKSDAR
# Method: as §1
# [5] = system: T5, Rep nickase domain of faba bean necrotic yellows virus
# T5 sequence (residues 1-98 of Rep, tag left off): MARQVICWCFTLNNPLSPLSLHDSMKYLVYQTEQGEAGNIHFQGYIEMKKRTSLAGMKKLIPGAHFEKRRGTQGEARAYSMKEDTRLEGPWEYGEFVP
# Method: as §1
# [6] = system: T6, Rep nickase domain of maize striate mosaic virus
# T6 sequence (residues 1-117 of Rep, tag left off): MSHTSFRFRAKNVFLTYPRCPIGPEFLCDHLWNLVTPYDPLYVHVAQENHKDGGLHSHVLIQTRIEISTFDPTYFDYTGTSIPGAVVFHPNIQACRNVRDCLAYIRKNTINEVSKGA
# Method: as §1
# [7] = system: T7, Rep nickase domain of porcine circovirus 2
# T7 sequence (residues 2-116 of Rep, tag left off): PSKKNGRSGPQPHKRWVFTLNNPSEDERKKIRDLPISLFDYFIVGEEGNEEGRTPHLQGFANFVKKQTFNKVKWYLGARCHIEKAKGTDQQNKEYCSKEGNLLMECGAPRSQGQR
# Method: as §1
# [8] = system: T8, Rep nickase domain of tomato golden mosaic virus
# T8 sequence (residues 1-124 of Rep, tag left off): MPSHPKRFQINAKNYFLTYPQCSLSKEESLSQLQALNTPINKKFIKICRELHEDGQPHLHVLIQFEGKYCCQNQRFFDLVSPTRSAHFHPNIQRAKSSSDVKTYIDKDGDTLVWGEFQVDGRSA
# Method: as §1
# [9] = system: T9, Rep nickase domain of tomato yellow leaf curl virus
# T9 sequence (residues 1-136 of Rep, tag left off): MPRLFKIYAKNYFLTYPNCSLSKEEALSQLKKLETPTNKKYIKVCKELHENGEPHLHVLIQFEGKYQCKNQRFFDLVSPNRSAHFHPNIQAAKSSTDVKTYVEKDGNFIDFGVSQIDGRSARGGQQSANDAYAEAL
# Method: as §1
# [10] = system: T10, Rep nickase domain of wheat dwarf virus
# T10 sequence (residues 1-137 of Rep, tag left off): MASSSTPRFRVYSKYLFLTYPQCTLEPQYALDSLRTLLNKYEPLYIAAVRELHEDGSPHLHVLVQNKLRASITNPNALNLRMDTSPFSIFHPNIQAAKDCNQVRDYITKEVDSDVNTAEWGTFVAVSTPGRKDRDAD
# Method: as §1
Sequence,uncleaved DNA left (log2) [1],uncleaved DNA left (log2) [2],uncleaved DNA left (log2) [3],uncleaved DNA left (log2) [4],uncleaved DNA left (log2) [5],uncleaved DNA left (log2) [6],uncleaved DNA left (log2) [7],uncleaved DNA left (log2) [8],uncleaved DNA left (log2) [9],uncleaved DNA left (log2) [10]
AGGCTCT,-0.121,-0.0619,0.26,-0.39,-0.00642,0.745,-0.0482,0.0296,-0.0866,0.083
AGCGCGT,0.0234,-0.0191,-0.0862,0.181,0.0201,0.548,0.101,0.0153,-0.037,0.0341
CCAGAGG,0.141,-0.108,0.263,0.964,0.0406,0.263,0.15,0.157,0.00837,0.0489
CATCCCT,0.0833,0.0226,-0.205,-2.4,0.0487,-0.407,-0.392,0.0283,0.106,0.0802
ATAAGCT,-0.0507,-0.0588,-2.6,-2.61,-0.0181,-0.796,0.0396,-0.116,-0.102,-0.344
GGCGGGC,0.159,0.068,0.586,1.01,0.122,1.35,0.232,0.0825,0.0713,0.0839
CAGATTT,0.03,-3.11,-0.896,-2.89,-2.29,-0.445,-4.1,-0.142,-0.00773,-0.315
TGCGTAG,0.0632,0.0467,-0.263,-0.285,0.0771,-0.774,0.0803,0.132,-0.0263,-0.0518
TAGGCTT,0.0637,-0.379,-1.15,-2.01,-0.0379,0.902,-2.97,-0.0899,0.0696,-0.0531
AAGCCCT,-0.0292,0.0188,-0.0115,-1.75,-0.0547,0.204,-2.03,-0.143,-0.0937,-0.137
CAACCCC,-0.603,-0.0813,-0.142,-1.5,-0.108,-0.329,-1.45,-0.0796,-0.103,-0.121
GTGGCTC,0.0657,0.074,0.368,0.978,-0.0565,1.88,0.0219,0.0476,0.0353,0.0465
GTGCTTC,0.000755,0.0178,0.307,0.854,0.0186,1.88,0.105,0.127,0.0541,0.0879
TGATGCC,-0.0118,-0.054,-0.131,-0.291,0.117,-0.76,0.0506,0.00704,0.0506,-0.0208
CAATGTT,-3.9,-3.78,-4.92,-3.8,-2.5,-3.5,-4.39,-4.28,-3.59,-4.58
CCTGCTG,0.23,-0.0544,0.246,0.998,0.00665,0.997,0.171,0.0106,-0.0237,-0.0684
GGCCAAG,0.0849,0.0676,0.232,0.52,0.0664,-0.0777,0.173,0.132,0.2,0.232
AAAGTAA,0.0645,0.109,-0.0852,-0.196,0.0633,-0.33,-0.0405,0.0619,0.0654,0.0212
AGCTTGC,0.0346,-0.0671,-0.644,-0.276,-0.0758,-1.08,0.0861,-0.0233,0.00328,-0.0674
CCCGCAA,0.00328,0.0722,-0.0378,-0.295,0.0601,-0.801,-0.0366,0.185,0.00892,-0.0394

Sequence,uncleaved DNA left (log2) [1],uncleaved DNA left (log2) [2],uncleaved DNA left (log2) [3],uncleaved DNA left (log2) [4],uncleaved DNA left (log2) [5],uncleaved DNA left (log2) [6],uncleaved DNA left (log2) [7],uncleaved DNA left (log2) [8],uncleaved DNA left (log2) [9],uncleaved DNA left (log2) [10]
CTCCTGA,0.106,0.14,0.025,0.00602,0.0766,-0.208,0.134,-0.064,0.183,0.194
CTTTGTG,0.0771,-0.103,-0.863,0.478,0.0723,-0.499,-0.0315,-0.0782,0.112,-0.0407
AACTGAG,0.151,0.0305,-0.635,-0.271,0.172,-0.976,0.271,0.0554,0.153,0.0459
TCGGCAT,-0.0341,-0.0344,0.557,1.17,0.00316,1.51,0.0887,-0.032,-0.208,0.067
CAGGACT,0.00275,0.11,0.286,0.949,0.0645,1.4,0.0374,0.00581,0.0888,0.116
CAACAAC,-0.0208,-0.0301,-0.184,-2.59,-0.0526,-0.694,-0.00849,-0.159,-0.136,-0.0794
CTTGACA,0.0951,0.011,-0.0312,-1.91,0.0205,-0.141,0.0475,-0.0444,0.106,0.0286
TATAGCG,-0.0782,0.0127,-0.63,0.712,0.0967,-0.471,0.145,-0.0539,0.0128,-0.126
ACTTCAT,0.0212,0.0276,-0.0762,-1.03,-0.0428,-0.631,-0.201,0.0857,0.000799,0.0975
GTCCGGG,0.0218,-0.00205,0.563,1.09,0.0534,1.81,0.119,0.0675,0.0311,0.0283
CCGTATT,-2.8,-2.62,-2.1,-1.93,-2.37,-0.655,-3.07,-1.86,0.0916,-2.28
TGATGCA,-0.0672,0.056,-0.379,-0.824,-0.0578,-1.05,-0.149,-0.17,-0.00199,-0.121
TTACCGG,-0.00738,0.154,0.554,1.35,-0.0102,1.96,0.0717,0.146,-0.0071,0.18
GCGCAAA,-0.00444,0.137,0.124,0.625,-0.0799,0.359,0.0594,0.0358,0.0789,0.0983
CCCGTAC,0.0505,-0.0223,0.0584,-0.556,0.0669,-0.559,0.123,0.0503,0.023,-0.153
AGTAAGA,-0.0901,-0.00436,0.0148,-0.0695,0.028,-0.851,-0.0559,0.0197,0.0482,-0.00545
AAAGACA,0.00357,-0.0184,0.0375,-1.58,-0.000626,0.58,0.0486,0.0143,-0.134,0.0499
TCGGCTC,0.0329,0.0283,0.0641,-0.0354,-0.0389,0.274,0.081,0.000472,0.033,-0.232
TCCGGTT,0.0326,-0.143,0.358,0.117,-0.0617,1.07,0.0498,0.0739,-0.00677,-0.0216
GTCGAAC,0.0521,-0.039,0.262,0.799,-0.219,1.37,-0.0818,-0.065,-0.124,-0.0328

Sequence,uncleaved DNA left (log2) [1],uncleaved DNA left (log2) [2],uncleaved DNA left (log2) [3],uncleaved DNA left (log2) [4],uncleaved DNA left (log2) [5],uncleaved DNA left (log2) [6],uncleaved DNA left (log2) [7],uncleaved DNA left (log2) [8],uncleaved DNA left (log2) [9],uncleaved DNA left (log2) [10]
AGTCTTT,0.0947,-0.164,0.0916,-1.75,-0.392,0.0893,-3.32,0.00359,0.0377,0.0291
TAAAGCA,-0.00485,-0.0661,-1.6,-2.45,-0.0139,-1.32,-0.274,-0.0934,0.084,-0.61
TTACGCT,0.0189,-0.084,-1.04,-2.82,-0.0872,-1.36,-0.209,-0.173,0.0576,-0.401
TAATGGC,0.0783,-0.00976,-2.65,-2.61,-0.029,-1.46,-0.0619,-0.192,0.0548,-0.219
AAATATC,-0.0419,0.00262,-3.15,-2.98,0.00305,-2.75,-0.491,-1.75,-0.00485,-1.86
CTTCAGG,0.0649,0.0419,0.301,1.06,-0.0764,0.801,0.135,0.142,-0.0177,-0.0269
CGTACAT,0.0281,-0.0333,0.504,0.876,0.0625,1.31,-0.141,-0.134,-0.035,0.0337
GTTGGTA,0.0176,0.0824,0.293,0.857,0.0817,1.74,0.12,0.0511,0.111,0.058
AACGGTT,0.114,0.00495,0.296,1.11,0.0932,1.67,0.0364,0.109,-0.0115,-0.0361
TACGACA,0.057,-0.0522,0.0571,-1.82,-0.1,0.354,-0.866,-0.0123,0.0464,0.0763
AAGAAGA,0.0635,0.0904,0.179,0.39,0.146,-0.355,0.0448,0.0788,-0.00476,0.0843
CGTTTCA,-0.189,0.0802,0.0485,-0.132,-0.202,0.245,-0.0352,-0.00916,-0.036,0.056
TTAAACA,0.0951,0.198,0.195,-1.75,0.0551,-0.165,-0.092,0.0851,0.128,0.0687
TCCATTT,-0.0435,-0.0895,-0.0608,-2.13,0.0597,-0.975,-0.319,-0.019,0.000511,-0.0591
ATGCTTC,0.102,-0.0248,0.00889,-0.314,-0.0698,-0.898,0.0459,-0.019,-0.0966,-0.00404
GTGACGG,-0.0079,0.0589,0.252,1.28,-0.0346,1.91,-0.00215,0.0156,-0.0519,0.00403
GTTATTG,0.0333,0.00643,0.0616,0.299,-0.0498,0.16,0.0523,0.04,0.06,-0.0179
AGCCTTT,0.0444,-0.0921,0.177,-0.91,-0.0163,0.341,-0.524,-0.339,-0.138,-0.0652
TCTGACT,0.106,0.0266,0.0448,-0.3,-0.000319,0.572,0.0127,-0.0184,-0.0312,0.068
TAATAAA,-0.327,0.00271,-2.32,-2.53,0.133,-0.83,-0.425,-0.19,0.0912,-1.14
